Among all 52,000 compounds or so, about 4,300 (8.3%) were called active. Rule as the data show it: active = survival mostly below about 52% (no sharp cut-off); inactive = mostly above about 56%. The list shows a part of the results.
These compounds were tested on DeltatarO mutant (assay: growth inhibition of S. aureus wild type versus tarO mutant, primary screen, teichoic acid synthesis inhibitors, RN4220, OD600 (AID 463173)). Settings: OD600, 18 h, hits give low values, screened at 18.75 µg/mL (by protocol).

| SMILES | survival |
| --- | --- |
| Nc1nnc(CCS(=O)(=O)c2ccc3ccccc3c2)s1 | inactive: 78% |
| CN1CCCCc2c1nc1ccccc1c2N | inactive: 93% |
| CS(=O)(=O)c1ncc(Cl)c(C(=O)N(Cc2ccc(Cl)cc2)Cc2ccco2)n1 | active: 4% |
| Cc1cccc(OCC(=O)Nc2nnc(S(=O)(=O)N3CCCCCC3)s2)c1 | active: 48% |
| Cc1ccc(-n2nc(C(=O)NC(C)C)c(=O)n(C)c2=O)cc1 | inactive: 78% |
| Cc1ccc(-n2c(=O)c3oc4ccccc4c3n(Cc3ccccc3)c2=O)cc1C | inactive: 57% |
| O=C(/C=C/c1ccc(F)cc1)NC(=S)NCc1ccco1 | inactive: 68% |
| CC1CCCN(C(=O)Cc2cccc3ccccc23)C1 (configuration not stated) | inactive: 98% |
| CCOC(=O)c1ccc(N2C(=O)CC(N3CCN(c4ccc(O)cc4)CC3)C2=O)cc1 (configuration not stated) | inactive: 96% |
| O=C(Nc1ccc(-c2nnn(CC(=O)N3CCN(C(=O)c4ccco4)CC3)n2)cc1)c1ccccc1F | inactive: 74% |
| CCC(=O)N1CCc2cc(CNS(=O)(=O)c3ccccc3F)ccc21 | inactive: 76% |
| Cc1ccc(NC(=O)C(Cc2ccccc2)NS(=O)(=O)c2ccc3c(c2)oc(=O)n3C)cc1C (configuration not stated) | inactive: 72% |
| CCc1cccc2c(C=C(C#N)C#N)cn(CC(=O)N3CCCCCC3)c12 | inactive: 77% |
| CC(C)(C)C(=O)Cn1c(=O)n(CCCCCC(=O)NCc2ccccc2Cl)c(=O)c2sccc21 | inactive: 56% |
| COc1cc(OC)cc(-c2nc3nc(C)c(CCC(=O)Nc4ccccc4)c(C)n3n2)c1 | inactive: 73% |
| O=C(Cc1ccccc1)Nc1nc2ccccc2s1 | inactive: 105% |
| CC(=O)c1ccc(N2CCN(C(=O)Nc3cn(CC(C)C)c(=O)c4ccccc34)CC2)cc1 | inactive: 80% |
| CCOC(=O)c1c(C)[nH]c(C)c1S(=O)(=O)NCC(=O)Nc1cc(Cl)ccc1OC | active: -4% |
| CC(=O)c1ccc(NC(=O)COc2ccccc2-c2nc(C(C)C)no2)cc1 | active: 55% |

| SMILES | survival |
| --- | --- |
| CCOC(=O)C1CCN(S(=O)(=O)c2cc(-c3cc(C)no3)ccc2OC)CC1 | inactive: 82% |
| CCC(=O)Nc1ccc(-c2nc3ccc(NC(=O)CC)cc3[nH]2)cc1 | inactive: 66% |
| N#C/C(=C\c1ccc(N2CCCCC2)o1)C(N)=O | inactive: 80% |
| O=C(COc1ccccc1)Nc1nnc2n1CCS2 | inactive: 86% |
| COc1ccc(C)cc1Nc1c2c(nc3ccccc13)CCC2 | inactive: 85% |
| COc1ccc(CCNC(=O)c2nc(SCc3ccc(F)cc3)ncc2Cl)cc1OC | active: 46% |
| CCOC(=O)N1CCC(NC(=O)c2ccc3c(c2)N(Cc2ccc(F)cc2)C(=O)c2ccccc2S3=O)CC1 (configuration not stated) | inactive: 58% |
| Cc1ccccc1OCC(=O)Nc1ccc2[nH]c(=O)sc2c1 | inactive: 133% |
| CCc1ccc(C2CC(=O)c3c([nH]c(C(=O)OC4CCCCCC4)c3C)C2)cc1 (configuration not stated) | inactive: 130% |
| COc1ccc(NC(=O)CN2CCN(C3CCCCC3)C(=O)C2=O)cc1 | inactive: 102% |
| CCCCCCC(=O)Nc1cc2nc3c(nc2cc1C)c(=O)n(C)c(=O)n3C | inactive: 159% |
| Cc1ccc(C)c(NC(=O)CSc2nnc(NC(=O)Nc3ccccc3)s2)c1 | inactive: 87% |
| O=C(CSc1nc(-c2ccco2)nc2cc(=O)[nH]n12)Nc1ccc(F)cc1 | inactive: 70% |
| COc1ccc(C2CC(=O)Nc3cc4c(cc32)OCO4)c(OC)c1 (configuration not stated) | inactive: 80% |
| CCN1CCN(Cc2nc3cc(NC(=O)c4cccc([N+](=O)[O-])c4)ccc3n2CC)CC1 | inactive: 105% |
| O=C(C1=C(O)C(=O)N(Cc2ccccc2)C1c1ccco1)c1ccco1 (configuration not stated) | inactive: 58% |
| CC(=O)Nc1cccc(NC(=O)CSc2cn(CC(=O)N3CCCC3)c3ccccc23)c1 | inactive: 58% |
| Cc1ccc(CCNC(=O)c2oc(=O)c3ccccc3c2-c2ccc(C)cc2)cc1 | active: 28% |
| CC1CCN(S(=O)(=O)c2ccc3c(ccc(=O)n3CC(=O)NCc3ccccc3)c2)CC1 | inactive: 49% |

| SMILES | survival |
| --- | --- |
| CCCS(=O)(=O)c1nc(S(=O)(=O)c2ccc(C)cc2)c(NCC(C)C)s1 | inactive: 73% |
| CCOC(=O)c1c(-c2ccc(Br)cc2)csc1NC(=O)c1ccc(C(C)(C)C)cc1 | inactive: 52% |
| COc1ccc(CNC(=O)C2CCCN(C(=O)c3cnn(-c4ccc(F)cc4)c3-n3cccc3)C2)cc1 (configuration not stated) | inactive: 86% |
| Cc1ccc(CNC(=O)c2cc(=O)c3cc(C)c(C)cc3o2)cc1 | inactive: 77% |
| CCOc1ccc(CC(=O)NCCc2sc(-c3cccc(F)c3)nc2C)cc1 | inactive: 85% |
| O=C(NCCS(=O)(=O)N1CCN(c2ccc(F)cc2)CC1)c1ccccc1Br | inactive: 98% |
| Cc1nc2c(-c3ccccc3)c(C)[nH]n2c(=O)c1Cc1ccc(Br)cc1 | active: 7% |
| COc1ccc(NC(=O)c2cc(=O)c3cc(C)cc(C)c3o2)cc1 | inactive: 66% |
| CCC(=O)Nc1ccc(C)cc1-c1nc2ccccc2n(CC(=O)c2ccc(C)cc2)c1=O | inactive: 68% |
| CC(C)(C)OC(=O)N1CCC(c2c(C(=O)NCc3ccco3)cnn2-c2ccc(F)cc2F)CC1 | inactive: 83% |
| Cc1noc2ncnc(N3CCCC(C(=O)Nc4cc(F)ccc4F)C3)c12 (configuration not stated) | inactive: 74% |
| CCCCNC(=O)Cn1c(=O)cc(C)c2c(C)nn(-c3cccc(Cl)c3C)c21 | inactive: 74% |
| CCc1ccc(-n2c(=O)c3c(C)c(C(=O)N(C)C)sc3n(CC(=O)Nc3cc(Cl)ccc3C)c2=O)cc1 | inactive: 131% |
| CCOC(=O)c1c(C)c(C(=O)NCc2ccc(Cl)cc2)c(C)n1C | inactive: 79% |
| COc1ccccc1NC(=O)C1=C(C)Nc2nc(-c3ccco3)nn2C1c1cccc(C)c1 (configuration not stated) | inactive: 70% |
| COc1ccccc1CNS(=O)(=O)c1ccc2c(c1)CC(C)N2C(=O)C1CCC1 (configuration not stated) | inactive: 104% |
| COc1ccc(N2CCN(C(=O)C(C)n3c(=O)cc(C(F)(F)F)c4c(C)nn(C)c43)CC2)cc1 (configuration not stated) | inactive: 97% |
| COc1ccc(Cl)cc1NC(=O)NCCc1c(C)nn(C)c1C | active: -1% |
| Cc1n(O)c2c3c(c4c(c2[n+]1[O-])n(O)c(C)[n+]4[O-])[n+]([O-])c(C)n3O | inactive: 101% |

— PubChem BioAssay AID463173 (ICCB-Longwood Screening Facility, Harvard Medical School, 2010)
